About 5,800 (2.1%) of roughly 270,000 compounds were called active. Inconclusive results, whose numbers are uncertain, are shown with a selection of clear calls. Calls come from the whole dose curve; as a rule, active = well fitted inhibition curve with a large enough effect; inconclusive = small, poorly fitted or top-dose-only effect; inactive = flat fitted curve, though single readings scatter. Where the call is inconclusive, the potency comes from a doubtful curve fit.
These molecules were tested against Microtubule-associated protein tau (Homo sapiens) (UniProt P10636) (assay: qHTS for Inhibitors of Tau Fibril Formation, Thioflavin T Binding). Settings: recombinant tau K18 P301L (four-repeat tau fragment), heparin-induced fibrillization, ThT fluorescence; series mostly up to 57.4 µM.
Chain of UniProt P10636 (P10636 whole entry, looked up, the tested form may be a part): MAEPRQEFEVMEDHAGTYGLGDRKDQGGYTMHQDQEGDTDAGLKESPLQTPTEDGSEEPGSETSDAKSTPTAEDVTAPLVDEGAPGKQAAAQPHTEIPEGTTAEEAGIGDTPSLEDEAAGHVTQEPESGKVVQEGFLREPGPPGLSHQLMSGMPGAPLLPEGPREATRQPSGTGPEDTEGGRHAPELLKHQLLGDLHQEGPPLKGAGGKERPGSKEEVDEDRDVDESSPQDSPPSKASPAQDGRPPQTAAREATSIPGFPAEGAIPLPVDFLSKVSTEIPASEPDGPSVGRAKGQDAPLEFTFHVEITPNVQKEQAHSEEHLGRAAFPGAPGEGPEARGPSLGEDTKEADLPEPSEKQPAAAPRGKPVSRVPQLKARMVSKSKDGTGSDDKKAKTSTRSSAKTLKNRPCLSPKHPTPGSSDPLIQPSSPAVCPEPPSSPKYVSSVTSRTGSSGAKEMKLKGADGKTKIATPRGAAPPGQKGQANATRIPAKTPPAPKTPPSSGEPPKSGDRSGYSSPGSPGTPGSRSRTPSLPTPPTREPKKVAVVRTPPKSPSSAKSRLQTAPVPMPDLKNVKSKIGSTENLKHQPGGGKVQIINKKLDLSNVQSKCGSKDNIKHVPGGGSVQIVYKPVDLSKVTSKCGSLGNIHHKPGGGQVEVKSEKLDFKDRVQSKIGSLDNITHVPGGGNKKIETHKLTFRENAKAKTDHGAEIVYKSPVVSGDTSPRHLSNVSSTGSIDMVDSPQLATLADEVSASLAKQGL
Outline: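 Heparin-induced fibrillization of the P301L-mutant K18 repeat-domain fragment of human tau was followed by ThT binding in quantitative high-throughput format.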
In the case of `COc1ccc2[nH]cc(CCNc3ncnc4ccc(-c5ccc(C(=O)N(C)C)cc5)cc34)c2c1`, the Potency is reported as inconclusive: 5.62 µM [inhibitor, partial curve].
`O=C(Nc1ccc(OCC(=O)N2CCC(Cc3ccccc3)CC2)cc1)c1ccco1` was tested, and the Potency was inconclusive: 3.55 µM [inhibitor, single point].
With `CCN1C(=O)/C(=C\C=C\c2ccccc2[N+](=O)[O-])SC1=S` the Potency was inconclusive: 5.62 µM [inhibitor, full curve].
`COc1ccc(/C=C/C2=NC(=C\N(C)C)/C(=O)O2)cc1` was tested, and the Potency was inconclusive: 17.8 µM [inhibitor, partial curve].
With `Cc1ccc(-n2ncc3c(N4CCN(c5ccccc5)CC4)ncnc32)cc1C` the Potency was inconclusive: 3.55 µM [inhibitor, full curve].
With `Cc1cc(C)n2ncc(S(=O)(=O)c3ccccc3)c2n1` the Potency was “inactive”.
`COc1ccc(N2CCN(C(=O)CSc3nnc(-c4cccnc4)n3-c3ccccc3)CC2)cc1` was tested, and the Potency was inconclusive: 17.8 µM [inhibitor, partial curve].
`CC(/C=N/n1c(-c2cccnc2)n[nH]c1=S)=C\c1ccco1` was tested, and the Potency was inconclusive: 14.1 µM [inhibitor, partial curve, poor fit].
For `C#CC[N+](C)(C)CCCCCCCCCC`, the Potency was “inactive”.
For `CCOC(=O)C1=C(O)/C(=C/c2ccc(OCC(=O)O)c(OCC)c2)SC1=Nc1ccc(C)cc1`, the Potency was inconclusive: 39.8 µM [inhibitor, single point].
`O=C1CSC2=NCN(c3ccc4c(c3)OCO4)CN12` was tested, and the Potency was inconclusive: 22.4 µM [inhibitor, partial curve].
With `COc1cccc(=O)c2c(C)n(C)c(C)c12` the Potency was inconclusive: 28.2 µM [inhibitor, partial curve].
For `CCOC(=O)c1ccc(NC(=S)NN2CCN(C)CC2)cc1`, the Potency was “inactive”.
With `O=C(COc1ccc(/C=C\[N+](=O)[O-])cc1)N1CCOCC1` the Potency was “inactive”.
In the case of `CN(C)c1cccc(C(=O)NCC2CCCO2)c1` (stereo not given), the Potency is reported as “inactive”.
`Cc1ccc(OC(=S)Nc2ccc(O)cc2)cc1` was tested, and the Potency was active: 15.8 µM.
In the case of `Nn1cnnc1SC1CCCCC1NS(=O)(=O)c1ccccc1` (stereo not given), the Potency is reported as “inactive”.
For `O=C(Nc1nc2nc(-c3ccccc3)cc(-c3ccccc3)n2n1)c1ccco1`, the Potency was inconclusive: 22.4 µM [inhibitor, partial curve, poor fit].
In the case of `Cc1ccc(CCNC(=O)c2coc3nc4ccccc4nc23)cc1`, the Potency is reported as inconclusive: 25.1 µM [inhibitor, single point].
`NC(=S)N/N=C/c1ccc([N+](=O)[O-])cc1` was tested, and the Potency was inconclusive: 28.2 µM [inhibitor, partial curve].
Note: nearly all actives have a fitted effect of over 55% in size.
Potency is the fitted concentration of half-maximal effect; tags give direction and shape of the fitted curve.
